Laboratory results reported in the supplement of paper PMC10369915.
The other results are listed elsewhere or left out. Cut-off read from the data, not from the text of the source: active = 3.2 or more and inactive = the rest. The signal is at background level for most entries.

B1: EFHC1_Y177 (peptide)
chain: INITIYGKTFR
B2: EEF1AKNMT_Y16 (peptide)
chain: FGSVDYWEKFF
B3: EFCAB3_Y372_S370A (peptide)
chain: RNEAFYDTFST
B4: EEF1A2_Y254_D252H (peptide)
chain: PLQHVYKIGGI
B5: EHHADH_Y682_Q685K (peptide)
chain: EKLQKYYRKNP
B6: EFHC1_Y115_R118C (peptide)
chain: STEEQYRICQV
B7: EHHADH_Y683_Q685K_YF (peptide)
chain: KLQKFYRKNPD
B8: EHHADH_Y4_E3K (peptide)
chain: GGMAKYTRLHN
B9: EGFEM1P_Y160_P157L (peptide)
chain: SSLMKYQQNVS
B10: EFCAB12_Y544_P541S_YF (peptide)
chain: VFSATYHPDHW
B11: EFR3A_Y73 (peptide)
chain: RHRSGYVLIAM
B12: EFCAB12_Y544_P541S (peptide)
chain: VYSATYHPDHW
B13: EGFR_Y764_V769M (peptide)
chain: ILDEAYVMASM
B14: EFCAB12_Y544 (peptide)
chain: VYPATYHPDHW
B15: ECHS1_Y137_A132T (peptide)
chain: TAVNGYAFGGG
B16: ECHS1_Y137 (peptide)
chain: AAVNGYAFGGG
B17: EHHADH_Y4 (peptide)
chain: GGMAEYTRLHN
B18: EFHC2_Y509_E507Q (peptide)
chain: KAEQLYIGVTV
B19: EGFR_Y270_P266R (peptide)
chain: PRLMLYNPTTY

Molecular target: SHP2 C-SH2 domain E139D
Assay: enrichment score (SH2-bound / input frequency) (ratio); bacterial display of known human phosphotyrosine sites (pTyr-Var adds point mutants) read by sequencing; higher = stronger binding; tyrosines were phosphorylated by kinases first
Conditions: peptide library: pTyr-Var
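Note: displayed peptides selected on beads carrying the immobilized SH2 domain, with library peptides lacking any tyrosine serving as negative controls.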

Row | Binder | enrichment score
1 | B1 | inactive: 1.33
2 | B2 | inactive: 1.2
3 | B3 | inactive: 0.907
4 | B4 | inactive: 1.03
5 | B5 | inactive: 1.04
6 | B6 | inactive: 0.802
7 | B7 | inactive: 0.856
8 | B8 | inactive: 0.963
9 | B9 | inactive: 0.969
10 | B10 | inactive: 1.12
11 | B11 | inactive: 2.33
12 | B12 | inactive: 1.31
13 | B13 | inactive: 0.603
14 | B14 | inactive: 0.724
15 | B15 | inactive: 0.819
16 | B16 | inactive: 0.809
17 | B17 | inactive: 0.736
18 | B18 | inactive: 1.07
19 | B19 | inactive: 1.07

Molecular target: SHP2 C-SH2 domain wild-type
Assay: as above
Conditions: peptide library: pTyr-Var

Row | Binder | enrichment score
20 | B1 | inactive: 1.6
21 | B2 | inactive: 1.11
22 | B3 | inactive: 0.937
23 | B4 | inactive: 0.969
24 | B5 | inactive: 0.851
25 | B6 | inactive: 1.01
26 | B7 | inactive: 0.612
27 | B8 | inactive: 1.09
28 | B9 | inactive: 0.795
29 | B10 | inactive: 0.868
30 | B11 | inactive: 2.72
31 | B12 | inactive: 1.16
32 | B13 | inactive: 0.691
33 | B14 | inactive: 0.906
34 | B15 | inactive: 0.661
35 | B16 | inactive: 0.787
36 | B17 | inactive: 1
37 | B18 | inactive: 1.3
38 | B19 | inactive: 1.21

Molecular target: SHP2 N-SH2 domain L43F
Assay: as above
Conditions: peptide library: pTyr-Var

Row | Binder | enrichment score
39 | B1 | inactive: 1.77
40 | B2 | inactive: 1.19
41 | B3 | inactive: 0.815
42 | B4 | inactive: 0.675
43 | B5 | inactive: 0.87
44 | B6 | inactive: 0.761
45 | B7 | inactive: 0.766
46 | B8 | inactive: 1.01
47 | B9 | inactive: 0.876
48 | B10 | inactive: 1.07
49 | B11 | inactive: 2.65
50 | B12 | inactive: 0.942
51 | B13 | inactive: 0.644
52 | B14 | inactive: 0.8
53 | B15 | inactive: 0.647
54 | B16 | inactive: 0.665
55 | B17 | inactive: 0.744
56 | B18 | inactive: 1.3
57 | B19 | inactive: 1.75

Molecular target: SHP2 N-SH2 domain T42A
Assay: as above
Conditions: peptide library: pTyr-Var

Row | Binder | enrichment score
58 | B1 | inactive: 1.18
59 | B2 | active: 3.22
60 | B3 | inactive: 0.731
61 | B4 | inactive: 0.963
62 | B5 | inactive: 0.829
63 | B6 | inactive: 0.864
64 | B7 | inactive: 0.62
65 | B8 | inactive: 1
66 | B9 | inactive: 0.703
67 | B10 | inactive: 1.04
68 | B11 | inactive: 2.05
69 | B12 | inactive: 1.2
70 | B13 | inactive: 0.489
71 | B14 | inactive: 0.723
72 | B15 | inactive: 0.771
73 | B16 | inactive: 0.625
74 | B17 | inactive: 0.933
75 | B18 | inactive: 1.04
76 | B19 | inactive: 1.14

Molecular target: SHP2 N-SH2 domain T52S
Assay: as above
Conditions: peptide library: pTyr-Var

Row | Binder | enrichment score
77 | B1 | inactive: 1.05
78 | B2 | inactive: 1.27
79 | B3 | inactive: 0.829
80 | B4 | inactive: 0.951
81 | B5 | inactive: 0.81
82 | B6 | inactive: 0.781
83 | B7 | inactive: 0.726
84 | B8 | inactive: 0.961
85 | B9 | inactive: 0.814
86 | B10 | inactive: 1.04
87 | B11 | inactive: 2.41
88 | B12 | inactive: 1.26
89 | B13 | inactive: 0.758
90 | B14 | inactive: 0.999
91 | B15 | inactive: 1.04
92 | B16 | inactive: 0.832
93 | B17 | inactive: 0.776
94 | B18 | inactive: 1.06
95 | B19 | inactive: 1.26

Molecular target: SHP2 N-SH2 domain wild-type
Assay: as above
Conditions: peptide library: pTyr-Var

Row | Binder | enrichment score
96 | B1 | inactive: 1.75
97 | B2 | inactive: 0.952
98 | B3 | inactive: 0.765
99 | B4 | inactive: 1.61
100 | B5 | inactive: 1.17
101 | B6 | inactive: 1.26
102 | B7 | inactive: 0.549
103 | B8 | inactive: 1.04
104 | B9 | inactive: 0.887
105 | B10 | inactive: 1.13
106 | B11 | inactive: 2.39
107 | B12 | inactive: 1.26
108 | B13 | inactive: 0.849
109 | B14 | inactive: 0.881
110 | B15 | inactive: 0.801
111 | B16 | inactive: 0.763
112 | B17 | inactive: 0.778
113 | B18 | inactive: 1.38
114 | B19 | inactive: 1.05
